Source: PubChem BioAssay AID1159614 (National Center for Advancing Translational Sciences (NCATS), 2016)
Out of some 45,000 compounds screened, about 65 (0.1%) were called active. Calls come from the whole dose curve; as a rule, active = well fitted activation curve with a large enough effect; inconclusive = small, poorly fitted or top-dose-only effect; inactive = no such curve, though single readings can be large or run the other way. The list shows a part of the results.

These compounds were tested against Galactocerebrosidase (Homo sapiens) (UniProt P54803) (assay: A Novel Cell-Based Assay to Identify Small Molecules for B -Galactocerebrosidase). Details: 145M-Twi-hGALC-G270D cells (Twitcher mouse brain line with human GALC G270D), HMU-beta-Gal fluorescence, 48 h; series mostly up to 57.5 µM; activation: at the top concentration.
Chain of UniProt P54803 (P54803 whole entry, looked up): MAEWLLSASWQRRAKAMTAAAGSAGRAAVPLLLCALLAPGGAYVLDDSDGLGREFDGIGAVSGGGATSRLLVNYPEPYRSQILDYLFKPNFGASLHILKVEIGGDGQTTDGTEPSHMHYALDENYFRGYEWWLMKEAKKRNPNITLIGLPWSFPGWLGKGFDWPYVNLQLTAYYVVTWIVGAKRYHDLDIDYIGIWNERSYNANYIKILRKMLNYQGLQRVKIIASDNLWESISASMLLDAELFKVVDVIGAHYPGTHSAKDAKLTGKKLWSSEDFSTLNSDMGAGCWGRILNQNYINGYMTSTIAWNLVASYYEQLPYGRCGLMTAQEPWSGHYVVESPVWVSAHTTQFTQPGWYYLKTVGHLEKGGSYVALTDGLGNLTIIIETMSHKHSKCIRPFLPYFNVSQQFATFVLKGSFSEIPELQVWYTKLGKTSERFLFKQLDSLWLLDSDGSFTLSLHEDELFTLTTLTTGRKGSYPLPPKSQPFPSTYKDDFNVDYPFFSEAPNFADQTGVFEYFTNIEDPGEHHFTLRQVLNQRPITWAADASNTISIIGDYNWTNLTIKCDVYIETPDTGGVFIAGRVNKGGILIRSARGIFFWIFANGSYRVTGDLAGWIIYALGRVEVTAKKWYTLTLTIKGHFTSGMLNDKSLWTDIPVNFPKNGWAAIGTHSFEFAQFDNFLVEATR
Procedure, shortened: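 Mutant human GALC (G270D), stably expressed in a Twitcher mouse brain cell line lacking endogenous GALC, is measured in live-treated cells via 6-hexadecanoylamino-4-methylumbelliferyl-β-galactoside hydrolysis (0.1 mM final, pH 5.2) with fluorescent detection.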
Note: 0% is about no effect; nearly all actives have a fitted effect of over 65% in size.

Compound | activation
COc1cccc(CNC(=O)C(=O)NCC(c2ccc3c(c2)OCO3)N2CCOCC2)c1 (centres undefined) | inactive: -6.05%
CCCOC1(C(F)(F)F)NC(=O)N(c2cccc(Cl)c2)C1=O (centres undefined) | inactive: -14.7%
C=Cc1ccc(Cn2c(C(=O)O)c(CNC3CCCCC3)c3ccc(OC)cc32)cc1 | inactive: -1.23%
O=C(NCCc1ccc(Cl)cc1)C(=O)NCC(c1cccs1)S(=O)(=O)c1cccs1 (centres undefined) | inactive: 5.21%
COc1ccc(OC)c(CNC(=O)CN2N=C(c3ccc(Cl)cc3)CCC2=O)c1 | inactive: -8.79%
COc1ccc(-n2nc3cc(C)c(NC(=O)Cc4ccc(Cl)cc4)cc3n2)cc1 | inactive: -0.709%
Cc1cc2oc(C(=O)Nc3cccc(-c4nc5ccccc5o4)c3)c(C)c2cc1C | inactive: -9.38%
CCOC(=O)c1ccccc1NC(=O)Nc1cc2c(cc1N1CCCC1)n(C)c(=O)n2C | inactive: 11.7%
CCOc1ccc(NC(=O)CSc2nnc(CNC(=O)C34CC5CC(CC(C5)C3)C4)n2CC)cc1 | inactive: -13.4%
COc1cccc(Cn2c(C)c(CNC3CCCCC3)c(C(=O)O)c2C)c1 | inactive: -14.3%
CCCC12CN3CC(CCC)(CN(C1)C3c1ccc(OC(C)C)cc1)C2=O (centres undefined) | inactive: -30.2%
Cc1c(C(=O)N(C)C)sc2c1c(=O)n(-c1ccc(Cl)c(Cl)c1)c(=O)n2CC(=O)N1CCCCC1C (centres undefined) | inactive: -11.5%
COc1cc(C(=O)N(Cc2ccc(N(C)C)cc2)CC2CCCO2)cc(OC)c1OC (centres undefined) | inactive: -9.42%
COc1ccc(-c2noc(-c3ccc(N4CCN(c5ccccc5OC)CC4)c([N+](=O)[O-])c3)n2)cc1 | inactive: -8.03%
CCCN1CN=C(NS(=O)(=O)c2ccc(NC(C)=O)cc2)NC1 | inactive: -13.7%
O=C(NCCc1ccccc1)c1ccc(Cn2c(SCc3ccccc3F)nc3cccnc32)cc1 | inactive: -0.116%
O=C(CSc1nc(=O)n(Cc2ccncc2)c2c1CCC2)Nc1ccc(F)cc1F | inactive: -24.8%
CC(Oc1ccccc1)C(=O)Nc1ccccc1C(=O)OCc1cc(=O)n2nc(C(C)C)sc2n1 (centres undefined) | inactive: -6.37%
CCc1ccc(NC(=O)CSc2nc(-c3cccc(OC)c3)nc3c2Cc2c(CO)cnc(C)c2O3)cc1 | inactive: -19.8%
Cc1ccc2nc(-c3ccc(C)o3)c(Nc3ccc4c(c3)OCCO4)n2c1 | inactive: -21.6%
COc1ccc(NC(=O)c2oc3ccccc3c2NC(=O)Cc2coc3ccc(C)cc23)cc1 | inactive: -12%
O=C(c1cnc2c(c1)COc1ccc(Cl)cc1-2)c1ccccc1O | inactive: -0.516%
COc1ccc(N2CC(NC(=O)C3CCCCC3)CC2=O)cc1OC (centres undefined) | inactive: -13.7%
COc1ccc(N2CCN(C(=O)CN3C(=O)COc4ccc(S(=O)(=O)N5CCC(C)CC5)cc43)CC2)cc1 | inactive: 0.348%

Compound | activation
Clc1ccccc1CSc1nnc(C2CCNCC2)o1 | inactive: -14.2%
CCOc1ccc(NC(=O)CCCOc2cc(=O)n(C)c3ccccc23)cc1 | inactive: -2.06%
COc1ccc(N2CCN(S(=O)(=O)CCNC(=O)Cc3ccc(OC)c(OC)c3)CC2)cc1 | inactive: -9.78%
Cc1nc(SCC(=O)Nc2nsc(-c3ccc(C(C)(C)C)cc3)n2)c2c3c(sc2n1)CCCC3 | inactive: 6.78%
Cc1ccc(C)c(N2CCN(C(=O)c3cc4c(=O)oc5ccccc5c4s3)CC2)c1 | inactive: 19.6%
O=C(Cn1c(=O)n(-c2ccccc2)c(=O)c2ccc(C(=O)NCc3ccc4c(c3)OCO4)cc21)Nc1ccc(Br)cc1 | inactive: 6.56%
COc1ccc(OC)c(CNC(=O)c2ccc3c(c2)c(C)c(C)n3C)c1 | inactive: 4.3%
CCCCN(CC)C(=O)c1nn(-c2ccc(OC)cc2)c(=O)c2c1c1ccccc1n2C | inactive: -2.1%
CCOc1cc(CNC(=O)c2ccc3nc(C(C)C)oc3c2)cc(OCC)c1OCC | inactive: -15.6%
O=C(CSc1nc2ncccc2o1)Nc1cccc(C(F)(F)F)c1 | inactive: -8.17%
CCS(=O)(=O)c1oc(-c2ccc(F)cc2)nc1S(=O)(=O)c1ccccc1 | inactive: -39.7%
C=C1C(=C/C=C2\CCC[C@]3(C)[C@@H]([C@H](C)/C=C/[C@@H](O)C4CC4)CC[C@@H]23)C[C@@H](O)C[C@@H]1O | inactive: -9.79%
Cc1ccc2occ(-c3cc(-c4ccc(F)cc4)nc4c3COc3ccc(F)cc3-4)c(=O)c2c1 | inactive: -10.2%
COC(=O)c1ccc(NC(=O)CCc2c(C)nc3c(c(C)nn3C(C)(C)C)c2C)cc1 | inactive: -12.4%
Nc1ncnc2c1ncn2[C@@H]1O[C@H](CO)[C@@H](O)[C@H]1O | inactive: -3.91%
CCN(C(=O)CSc1nc(-c2ccccc2)no1)c1ccccc1 | inactive: -12.2%
CN(C)C(=O)c1ccc2c(c1)N(CC(=O)NCc1ccccc1Cl)C(=O)C1CCCCN21 (centres undefined) | inactive: -8.03%
COc1ccc(OC)c(CNC(=O)c2nn(C)c3c2CS(=O)(=O)c2ccccc2-3)c1 | inactive: -6.23%
Cc1ccccc1CSc1nc(-c2cccc(F)c2)nc2c1Cc1c(CO)cnc(C)c1O2 | inactive: -4.27%
CCN(CC)S(=O)(=O)c1ccc2nc(NC(=O)c3ccc(Br)o3)sc2c1 | inactive: -9.32%
O=C(Nc1nc2ccc(Cl)cc2s1)c1ccc(S(=O)(=O)N2CCCC2)cc1 | inactive: 12.1%
CCN(CC)c1ccc(C(=O)N2CCC(c3ccncc3)CC2)cc1 | inactive: -5.26%
CCOC(=O)c1nc(Nc2ccccc2C)c2ccccc2n1 | inactive: -6.06%
Cc1cccc(NC(=O)C2CCCN(c3nnc(-n4c(C)ccc4C)s3)C2)c1C (centres undefined) | inactive: -18.4%

Compound | activation
CCOc1cccc(C2c3[nH]c4ccccc4c3CCN2C(=O)CCc2ccccc2)c1 (centres undefined) | inactive: -11.1%
CC(C)c1ccc(NC(=O)CN2C(=O)c3cccc4cccc2c34)cc1 | inactive: -4.63%
CCc1ccc(S(=O)(=O)c2cn(C)c3cc(OC)c(OC)cc3c2=O)cc1 | inactive: -7.43%
CCCN(CCC)S(=O)(=O)c1ccc(C(=O)O)cc1 | inactive: -18.1%
CCOC(=O)C1CCCN(C(=O)c2ccc3c(c2)N(Cc2cccc(Cl)c2)C(=O)c2ccccc2S3(=O)=O)C1 (centres undefined) | inactive: -17.4%
COc1ccc(C)cc1NC(=O)CN1C(=O)COc2ccc(S(=O)(=O)N3CCCCCC3)cc21 | inactive: 3.06%
CCCN(C(=O)Cn1c(=O)oc2cc(Cl)ccc21)c1ccc(C(C)C)cc1 | inactive: -12.4%
COc1ccc(CNC(=O)Cc2coc3ccc(C(C)C)cc23)cc1 | inactive: -25%
CCOc1ccccc1CNC(=O)CSc1n[nH]c(-c2ccccc2Cl)n1 | inactive: -0.761%
Cc1cc(C)c(S(=O)(=O)NCC(c2ccc(N(C)C)cc2)N2CCc3ccccc32)c(C)c1 (centres undefined) | inactive: -1.15%
Cc1ccc(C)c(CN2C(=O)c3ccccc3S(=O)(=O)c3ccc(C(=O)N4CCN(C)CC4)cc32)c1 | inactive: -6.68%
Cc1cc(Nc2cc(Cl)ccc2C)n2nc(Cc3ccccc3)nc2n1 | inactive: -8.05%
CCOC(=O)c1ccc(Nc2nc(C(=O)OCC)nc3ccccc23)cc1 | inactive: -5.73%
O=C(CN1C(=O)COc2ccc(S(=O)(=O)N3CCCCC3)cc21)NCc1ccccc1Cl | inactive: -19%
COc1ccc(-c2nnc(SCC(=O)Oc3cccc(C)c3C)o2)cc1 | inactive: -7.49%
COc1cccc(CNC(=O)CCc2nc(-c3ccc(C)cc3)no2)c1 | inactive: -11%
COc1ccccc1NC(=O)CSc1oc(-c2ccco2)nc1S(=O)(=O)c1ccc(Br)cc1 | inactive: -5.97%
Cc1cc(OCCn2cc(C(=O)c3ccco3)c3ccccc32)ccc1Cl | inactive: -10.1%
COc1ccccc1Oc1nc2c(C)cccn2c(=O)c1/C=C(\C#N)c1nc2ccccc2[nH]1 | inactive: -14.4%
Cc1nn(CC(=O)NCc2cccc(F)c2)c(=O)c2c(C)n(-c3ccc(Cl)cc3)nc12 | inactive: 6.08%
CCOC(=O)c1cc(-c2ccc(C)cc2)n(CC(=O)Nc2ccc(OC)c(Cl)c2)c1C | inactive: -1.55%
CC(C)(C)NCC(O)COc1ccc(NC(=O)NC2CCCCC2)cc1 (centres undefined) | inactive: -12.2%
Cc1ccc(CCNC(=O)c2cc3sccc3n2Cc2ccc(Cl)cc2)cc1 | inactive: -17.2%
COc1ccc(-n2cc(C(=O)NCc3ccc(Cl)cc3)c3ccccc3c2=O)cc1 | inactive: -3.1%

Compound | activation
COc1ccc2nc(N(Cc3cccnc3)C(=O)c3ccco3)sc2c1 | inactive: -8%
CCOC(=O)C1=C(CN2CCN(c3cc(C)ccc3C)CC2)NC(=O)NC1c1ccccc1 (centres undefined) | inactive: 14.4%
CC1CN(C(=O)CCC(=O)NCc2cccs2)c2cc(Cl)ccc2O1 (centres undefined) | inactive: -26.6%
COc1ccc(N(C(=O)c2ccccc2C)S(=O)(=O)c2ccc(C)cc2)cc1 | inactive: -11.5%
Cc1ccc2c(c1)c1c(c(=O)n(-c3ccccc3)c(=O)n1CC(=O)NCCC1=CCCCC1)n2C | inactive: 7.77%
Cc1ccc(-c2nnn(CC(=O)N(CC(=O)NCCC(C)C)c3ccc(F)cc3)n2)cc1 | inactive: -16.4%
O=C(c1ccc2c(c1)OCCO2)N(Cc1cccnc1)c1nc2ccc(Cl)cc2s1 | inactive: -9.22%
COc1cccc(CN2C(=O)C3(SCC(=O)N3c3cc(C)cc(C)c3)c3ccccc32)c1 (centres undefined) | inactive: -35.4%
COc1ccccc1N1CCN(S(=O)(=O)c2cc(-c3cc(C)no3)ccc2C)CC1 | inactive: -16.8%
CCc1ccc2oc(C(=O)NCCc3ccc(OC)c(OC)c3)cc(=O)c2c1 | inactive: -13.9%
Cc1ccc2nc(-c3c[nH]c4ccccc34)c(Nc3ccccc3)n2c1 | inactive: -12%
O=C(NCCc1ccc(F)cc1)C(=O)NCC(c1ccc2c(c1)OCO2)N1CCOCC1 (centres undefined) | inactive: -12.9%
Cc1coc2c1c(C)cc1oc(=O)c(CC(=O)NCc3ccc(Cl)cc3)c(C)c12 | inactive: -2.26%
CCCCCOC(=O)c1ccc(Nc2nc(C(=O)OCC)nc3ccccc23)cc1 | inactive: -15.3%
Cc1ccc(C(C)C)c(OCC(=O)Nc2nc3c(s2)CCCC3)c1 | inactive: -18.7%
CCN(CC)C(=O)c1cccc(C)c1 | inactive: -19.8%
COc1ccc(S(=O)(=O)Nc2cc(-c3cn4cccc(C)c4n3)ccc2C)cc1C | inactive: -24.1%
COc1ccc(NC(=O)C(C)n2nc(C)c3c(C)n(-c4ccccc4)nc3c2=O)cc1Cl (centres undefined) | inactive: 23.9%
CCOCCCNC(=O)C(c1ccc(Cl)cc1)N(Cc1ccc2c(c1)OCO2)C(=O)c1ccccc1O (centres undefined) | inactive: -11.9%
CCOc1ccc(C(=O)N2CCN(Cc3cc(=O)n4nc(-c5cccc(OC)c5)sc4n3)CC2)cc1 | inactive: -9.29%
Cc1cccc(NC(=O)c2ccc(F)c(S(=O)(=O)N(C)C3CCCCC3)c2)c1 | inactive: -9.59%
COc1ccc(N2CCN(C(=O)c3cccn4c(=O)c5ccc(Cl)cc5nc34)CC2)cc1 | inactive: -16.2%
